This experiment deals with Staphylococcus aureus. Description: Inhibition of alpha-hemolysin production in Staphylococcus aureus USA300 at 100 uM after 6 hrs by Western blot analysis. (A western blot detects proteins with antibodies after separation by electrophoresis.)

The source made the active and inactive calls. No cut-off for these calls is given here.

Consider `CCCCCCC/C(O)=C1/C(=O)N[C@@H](CCO)C1=O`, for which the inhibition result is “Active”.

These data come from ChEMBL document CHEMBL3232797, “Targeting Staphylococcus aureus quorum sensing with nonpeptidic small molecule inhibitors” (J Med Chem, 2014).
